Data: PubChem BioAssay AID504332 (National Center for Advancing Translational Sciences (NCATS), 2011)
Out of some 350,000 compounds screened, about 31,000 (8.9%) were called active. The inconclusive results got no clear call from the source; some entries with a clear call stand among them for comparison. Calls come from the whole dose curve; as a rule, active = well fitted inhibition curve with a large enough effect; inconclusive = small, poorly fitted or top-dose-only effect; inactive = no such curve, though single readings can be large or run the other way. Potencies beside an inconclusive call are fits to weak or partial responses and may not hold up. A structure can be active in one record and inactive in another.

The compounds below were run against Histone-lysine N-methyltransferase EHMT2 (Homo sapiens) (UniProt Q96KQ7) (assay: qHTS Assay for Inhibitors of Histone Lysine Methyltransferase G9a). Conditions: G9a H3K9 monomethylation, AlphaScreen, 2 h; activity, negative = inhibition: at 59 µM (top of the series) unless noted.
In short: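 Readings reflect AlphaScreen signal from monomethyl-H3K9 antibody detection. HMT at 20 nM; substrate b-H3K9 500 nM; cofactor SAM 20 uM; 2 h RT reaction; compounds tested as titrations in qHTS with 15 min preincubation.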
% is set by controls: 0 for no effect and ±100 for the full control effect; potency is the fitted concentration of half-maximal effect; tags give direction and shape of the fitted curve.
Note: nearly all actives have a fitted effect of over 75% in size.

Chain of UniProt Q96KQ7 (Q96KQ7 whole entry, looked up): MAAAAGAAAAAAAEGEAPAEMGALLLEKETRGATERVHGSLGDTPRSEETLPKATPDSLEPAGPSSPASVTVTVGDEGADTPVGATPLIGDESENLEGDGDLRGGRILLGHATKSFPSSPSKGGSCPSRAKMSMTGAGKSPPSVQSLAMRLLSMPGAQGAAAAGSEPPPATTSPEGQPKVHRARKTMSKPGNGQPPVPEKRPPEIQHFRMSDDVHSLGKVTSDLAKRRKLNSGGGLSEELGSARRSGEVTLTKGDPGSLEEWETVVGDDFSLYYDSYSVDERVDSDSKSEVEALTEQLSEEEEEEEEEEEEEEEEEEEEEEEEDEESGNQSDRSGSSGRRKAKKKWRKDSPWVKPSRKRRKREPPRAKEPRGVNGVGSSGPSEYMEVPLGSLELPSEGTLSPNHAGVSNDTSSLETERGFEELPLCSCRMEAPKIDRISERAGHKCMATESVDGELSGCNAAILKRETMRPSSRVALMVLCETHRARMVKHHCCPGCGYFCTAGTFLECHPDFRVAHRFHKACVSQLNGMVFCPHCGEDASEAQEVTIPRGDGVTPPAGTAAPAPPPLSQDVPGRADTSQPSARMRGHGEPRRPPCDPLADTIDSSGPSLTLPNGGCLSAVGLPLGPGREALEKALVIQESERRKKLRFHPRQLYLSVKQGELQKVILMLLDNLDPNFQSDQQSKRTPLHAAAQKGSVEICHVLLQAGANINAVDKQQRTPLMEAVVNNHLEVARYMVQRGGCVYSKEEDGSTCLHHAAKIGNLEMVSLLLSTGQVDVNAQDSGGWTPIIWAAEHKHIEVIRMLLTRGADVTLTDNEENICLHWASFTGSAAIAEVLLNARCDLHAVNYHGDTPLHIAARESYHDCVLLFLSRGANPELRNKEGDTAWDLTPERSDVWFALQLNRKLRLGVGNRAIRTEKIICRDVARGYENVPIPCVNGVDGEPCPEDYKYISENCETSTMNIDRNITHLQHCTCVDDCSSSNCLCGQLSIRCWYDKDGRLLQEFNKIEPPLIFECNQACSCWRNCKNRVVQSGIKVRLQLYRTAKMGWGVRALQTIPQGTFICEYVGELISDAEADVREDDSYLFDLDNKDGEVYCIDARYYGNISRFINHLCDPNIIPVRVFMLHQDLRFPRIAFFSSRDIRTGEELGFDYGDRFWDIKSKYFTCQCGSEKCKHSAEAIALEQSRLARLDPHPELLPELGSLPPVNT

Compound	activity, negative = inhibition	Potency
O=C(COC(=O)/C=C/c1cccc(Cl)c1)NC1CC1	inactive: 19.2%	
C/C(=N\Nc1ccc(C)c(Cl)c1)c1ccncc1		active: 22.4 µM
Cc1cc([N+](=O)[O-])c2[nH]c(C(=O)N/N=C/c3ccccc3C(=O)O)c(-c3ccccc3)c2c1		inconclusive: 56.2 µM [inhibitor, partial curve, poor fit]
CCCCN1C(=O)/C(=c2\sc3nc(=O)c(-c4ccccc4)nn3c2=O)c2ccccc21		inconclusive: 5.62 µM [inhibitor, single point]
C[C@@]12C=CC(=O)C=C1CC[C@@H]1[C@@H]2[C@H](O)C[C@]2(C)[C@@H]1CC[C@]2(O)C(=O)CO	inactive: 18.7% [at 21.5 µM]	
CCOC(=O)C1=C(c2ccccc2)OC(N)=C(C#N)C1c1cccnc1 (centres undefined)		inconclusive: 70.8 µM [inhibitor, single point]
COc1ccccc1CNC(=O)COC(=O)c1ccccc1SCC(=O)N1CCCC1		inconclusive: 50.1 µM [inhibitor, partial curve]
Cn1cnc(S(=O)(=O)N2CCCC(C(=O)Nc3ccc(OC(F)(F)F)cc3)C2)c1 (centres undefined)	inactive: 10.1%	
CCOC(=O)c1c(NC(=O)c2ccc(C)c(C)c2)sc2c1CCCCC2	inactive: 16.2%	
Cc1ccc(NC(=S)Nc2ncccc2C)c(C)c1		active: 31.6 µM
CC(=O)Nc1ccc(NC(=O)C(C)OC(=O)c2ccccc2NS(=O)(=O)c2cccs2)cc1 (centres undefined)	inactive: -16.6% [at 102 µM]	
CCN(CC)CCN1c2ccccc2Sc2ccccc21	inconclusive: -85.8% [inhibitor] [at 12.7 µM]	
O=C(Nc1ccccc1Br)N1CCC(CN2CCCC2)CC1		inconclusive: 11.2 µM [inhibitor, partial curve, poor fit]
Cc1ccc2oc(=O)c3cnn(CC(=O)NCCCOC(C)C)c3c2c1		inconclusive: 89.1 µM [inhibitor, partial curve, poor fit]
COCCn1c(C)cc(/C=N/NC(=O)c2cccnc2)c1C		inconclusive: 50.1 µM [inhibitor, partial curve, poor fit]
CC(C)[C@H](NC(=O)C1(c2ccccc2)CCN(C(=O)OC(C)(C)C)CC1)C(=O)O		inconclusive: 89.1 µM [inhibitor, single point]
CCCN(CCC)S(=O)(=O)c1cccc(C(=O)Nc2ccc3c(c2)OCO3)c1		inconclusive: 31.6 µM [inhibitor, single point]
Cc1ccc(S(=O)(=O)N2CCOCC2)cc1C(=O)OCC(=O)NC1CC1		inconclusive: 8.91 µM [inhibitor, single point]
COC(=O)c1cc(Br)c(=O)n(-c2ccccn2)c1		inconclusive: 28.2 µM [inhibitor, partial curve, poor fit]
CC1CC(N(C(=O)c2ccco2)c2ccccc2)c2ccccc2N1C(=O)c1ccco1 (centres undefined)	inactive: -37.2%	
CCOC(=O)N1CCC(NCCNC(=O)c2ccccc2Cl)CC1		active: 3.55 µM
CN(CC(=O)Nc1ccccc1Cl)C(=O)COC(=O)C1=COCCO1	inactive: 1.3% [at 102 µM]	

Compound	activity, negative = inhibition	Potency
Cc1cc(F)ccc1NC(=O)c1c(C)oc2c1C1=NCCN1C=N2	inactive: 23.1%	
COc1ccc(CCn2c(C)cc(C(=O)CCl)c2C)cc1OC		inconclusive: 50.1 µM [inhibitor, partial curve, poor fit]
COc1ccc(-n2c(CNC(=O)c3ccc(S(=O)(=O)N4CCCC4)cc3)n[nH]c2=S)cc1		inconclusive: 3.16 µM [inhibitor, single point]
CN[C@H](CC(=O)O)C(=O)O		active: 22.4 µM
Cc1oc2c(c1C(=O)c1ccccc1)C(=O)C(=O)c1ccccc1-2	inconclusive: -82.4% [inhibitor]	
CCOC(=O)C(C)On1c(-c2ccc(Cl)cc2)nc2ccc([N+](=O)[O-])cc21 (centres undefined)		inconclusive: 35.5 µM [inhibitor, partial curve]
Cc1cccc(N2CCN(C(=S)c3ccc(-c4ccccc4[N+](=O)[O-])o3)CC2)c1		active: 11.2 µM
COc1ccc(OC)c(/C=N/NC(=O)c2ccc[n+](CC(=O)c3ccccc3)c2)c1		inconclusive: 1.78 µM [inhibitor, partial curve, poor fit]
CCOC(=O)c1cc(N)cc([N+](=O)[O-])c1		inconclusive: 20 µM [inhibitor, partial curve, poor fit]
Cc1cc[n+]2cc(-c3cccc([N+](=O)[O-])c3)c(-c3cccc([N+](=O)[O-])c3)cc2c1		inconclusive: 100 µM [inhibitor, single point]
O=C(NCCC1CCCCN1S(=O)(=O)c1cccs1)C(=O)Nc1cccc(F)c1 (centres undefined)	inactive: -24% [at 102 µM]	
CN1CCN(c2oc(-c3cccs3)nc2S(=O)(=O)c2ccccc2)CC1		inconclusive: 89.1 µM [inhibitor, single point]
C=CCn1c(SCC(=O)NCc2ccccc2)nnc1-c1cc(Br)ccc1O		active: 10 µM
O=C(c1ccc(=O)[nH]c1)N1CCN(S(=O)(=O)c2cc(C(F)(F)F)ccc2Cl)CC1		inconclusive: 31.6 µM [inhibitor, full curve]
CN(C)C(CNS(=O)(=O)c1ccc(F)cc1)c1cccnc1 (centres undefined)		inconclusive: 39.8 µM [inhibitor, single point]
COc1ccc(-n2ccnc2SCC(=O)NO)cc1		inconclusive: 89.1 µM [inhibitor, partial curve, poor fit]
O=C(c1ccccc1[N+](=O)[O-])n1cnc2ccccc21		inconclusive: 44.7 µM [inhibitor, partial curve]
CCc1ccccc1NC(=O)CSc1nc2c(c(=O)[nH]1)CN(Cc1ccccc1OC)CC2		inconclusive: 39.8 µM [inhibitor, partial curve, poor fit]
CC(=O)Oc1ccc(/C=N/NC(=S)Nc2ccccc2)cc1	inactive: 33.8%	
Cc1cccc(-c2nc(C#N)c(N3CCC(C)CC3)o2)c1	inactive: -1.91% [at 102 µM]	
COc1cc(/C=N/NS(=O)(=O)c2ccc(C)c([N+](=O)[O-])c2)ccc1O		inconclusive: 50.1 µM [inhibitor, partial curve, poor fit]
COc1ccc(-c2noc(CCC(=O)NCCN3CCN(c4ccccc4F)CC3)n2)cc1		inconclusive: 50.1 µM [inhibitor, partial curve]
